Measurements published in the supplement of paper PMC11417369.
The other results are listed elsewhere or left out.

system: PfAP2-HC AP2 domain (GST-tagged); experiment: gcPBM binding intensity (ln(normalized median fluorescence intensity)); higher = stronger DNA binding
In short: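 An Agilent 4 × 180k array of primer-extended double-stranded 36-bp intergenic genomic probes, with negative controls, was incubated for 1 h with GST-tagged P. falciparum DNA-binding domains expressed in E. coli. Alexa488 anti-GST antibody detected bound protein, scanned at 488 nm. Binding intensity is the highest Masliner-normalised natural-log median intensity across replicate spots of either probe orientation.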

First: ATGAACATACAATATACACACATATAGATTTATATT [CACACA_site6524]
Second: TCATTATTAATATGTAGTACATTATATGATATGTAT [XGTACX_site8978]
The “gcPBM binding intensity (ln)” value of the first is higher: 9.87 for the first, 9.64 for the second.

Compared with “TTCTTTTTAAATTACACACACATATATATCTGTATA [CACACA_site5863]”, “TAAAGGATTTTCGAAGCATGCCACCTGTGACATACT [TGCATGCA_site130]” is lower in “gcPBM binding intensity (ln)” value: 10.1 for the first, 9.33 for the second.

First: TACATACATACATACACACACATATATATATATATA [CACACA_site1944]
Second: ATTTTTTCATATTCTACACACGTGAACAAATGAGTC [CACACA_site5635]
The “gcPBM binding intensity (ln)” value of the first is higher: 10 for the first, 9.67 for the second.

Going from “AACAGACAAAGACACACACACATACATACATACATA [CACACA_site6351]” to “TATCATATTTTTATATGTACATAACATAAAAAAAAA [XGTACX_site2152]”, the “gcPBM binding intensity (ln)” value falls from 10.4 to 9.3.

First: TGATTTGTGCCGATTTGTACACATTTATATATATAT [XGTACX_site2154]
Second: AGAAAGAAAATATATACACACAAAAAAAAATATATA [CACACA_site1412]
The “gcPBM binding intensity (ln)” value of the first is lower: 9.91 for the first, 9.93 for the second.

Compared with “TTTTTTTTATGTATCACACATAATTTTTTATTATGA [CACACA_site5534]”, “ATAATAACAAGGCGCTGTACTGTACCGTTTTTCATA [XGTACX_site6135]” is higher in “gcPBM binding intensity (ln)” value: 9.66 for the first, 9.79 for the second.

Compared with “CATCCACAAATATGTACACACATATATAAATATGTA [CACACA_site7407]”, “CAATGTTAACATATTACACACATATGTATATATAAT [CACACA_site8878]” is higher in “gcPBM binding intensity (ln)” value: 9.8 for the first, 9.99 for the second.

Compared with “GACAACTCTTTTCATACACACAAAAAAAAAAAAATA [CACACA_site2361]”, “TCACATATATATTAATGTACATATATTTTTTATGTA [XGTACX_site5125]” is higher in “gcPBM binding intensity (ln)” value: 9.72 for the first, 9.85 for the second.

Going from “GATATATCCTATGTTATTTTTATGGTGTAATTTAGT [XGTACX_negctrl_site112]” to “TTTTTTTTCTCACAAAAAATAATTAACAAAAAGGAA [XGTACX_negctrl_site154]”, the “gcPBM binding intensity (ln)” value falls from 9.85 to 9.27.

Compared with “GGCATGACTATCTGCACACATAAAAATAAGAAATAC [CACACA_site841]”, “GATTTATACAAATATGTACACACTAATTATATATTA [CACACA_site8045]” is higher in “gcPBM binding intensity (ln)” value: 9.88 for the first, 9.92 for the second.

Going from “TAAAAAAAAAAAAAAAGTACAAAAAAAATATTTTTT [XGTACX_site7941]” to “ATATGCTATTTACTAGTGCAAAATATTTAAAATATG [GTGCAC_site9517]”, the “gcPBM binding intensity (ln)” value rises from 9.3 to 9.57.

Going from “GTTGCACAATGTTACACACACAATATAGATCGTTAA [CACACA_site6717]” to “TTAATATAAGCAAATACACACACACCGATATATATA [CACACA_site9269]”, the “gcPBM binding intensity (ln)” value rises from 10 to 11.1.

Going from “ATAAAAAAAAAAAATACACACATATATTTATTTATA [CACACA_site6903]” to “TTTATATGGATTTTTTTTTAATATTTCTTTTAATTT [TGCATGCA_negctrl_site361]”, the “gcPBM binding intensity (ln)” value falls from 9.71 to 9.48.

First: TGATTCTAACTTATGGTGCAACATTATGGACACCGT
Second: TTAATATTGTTATAGCGTACAAATAAACATATTAAA [XGTACX_site8153]
The “gcPBM binding intensity (ln)” value of the first is lower: 9.44 for the first, 9.47 for the second.

Going from “TTACATATTTATGATTGTACACATTTATAAACAATA [XGTACX_site2190]” to “TATTTAAAAATAAAATGTACATATTATTATGCATTA [XGTACX_site1303]”, the “gcPBM binding intensity (ln)” value rises from 9.34 to 9.54.

Going from “ATAATAATAAAGTGAACACACACATATAATATATAT [CACACA_site9378]” to “TGGTAACAGCATAGAAAATGGACAAACGAAATATAA [GTGCAC_negctrl_site537]”, the “gcPBM binding intensity (ln)” value falls from 10.1 to 9.72.

Compared with “TAAATAAACAAATTAACACACAGAATTTTTTTTTTC [CACACA_site1674]”, “AATGTTAAGGAGGGGAGTACATAAAATTCTCTCTCC [XGTACX_site1990]” is lower in “gcPBM binding intensity (ln)” value: 9.76 for the first, 9.4 for the second.

First: AAAAGCTATAAAAATCGGTAATTTATAACAGGAATT [CACACA_negctrl_site469]
Second: ATTATGTACTATTATACACACGTTTAATTGTAAATT [CACACA_site4278]
The “gcPBM binding intensity (ln)” value of the first is lower: 9.67 for the first, 9.79 for the second.

Going from “TAAAAATGTGGACACACACACATATATATATTTAAT [CACACA_site4941]” to “TTTCTAATTATTTCCCTTCAAATATATTAATATCGT [CACACA_negctrl_site429]”, the “gcPBM binding intensity (ln)” value falls from 10.2 to 9.55.

First: ATATATATTATTATATGTACATATAAATATATTAAT [XGTACX_site5270]
Second: ATATTGTAAGTAAAATGTAATAAATATAATAAAATA [CACACA_negctrl_site697]
The “gcPBM binding intensity (ln)” value of the first is lower: 9.53 for the first, 9.76 for the second.

First: TTAGTATATACATTTGCACACATTATTTTTTAACAT [CACACA_site2618]
Second: AAAAGGAAAATACTAGCACACAATATATAATAAACA [CACACA_site285]
The “gcPBM binding intensity (ln)” value of the first is higher: 10 for the first, 9.95 for the second.

First: TCCTTGCATTTTAAAACACACAAAAATTAATTGTTA [CACACA_site7152]
Second: ATTTTATAAACAAATGAACACACAAACATATATATA [CACACA_site9036]
The “gcPBM binding intensity (ln)” value of the first is lower: 9.56 for the first, 9.97 for the second.

First: TACATACATAAACACACACACACATATATATATATA [CACACA_site8953]
Second: ATCAAAAGAAAACACACACACATACATATATATATA [CACACA_site3795]
The “gcPBM binding intensity (ln)” value of the first is lower: 10.5 for the first, 11.1 for the second.

First: ATTTGTGTATATTAGAGTACATAAAATTAGAGGAAC [XGTACX_site1654]
Second: CATTAATGACATGATTGTACATAAGCTTTTTTACAT [XGTACX_site1888]
The “gcPBM binding intensity (ln)” value of the first is higher: 9.86 for the first, 9.73 for the second.

Compared with “ACCCATTCAAATTTCGCACACACATACAAAAAAAAA [CACACA_site3094]”, “TTCATATATTATTATGCATGTTCATAAATTATCTAA [TGCATGCA_site896]” is lower in “gcPBM binding intensity (ln)” value: 10.1 for the first, 9.57 for the second.

Compared with “TTCATATAATTATATACATGCATAAATTCTAAGTAA [TGCATGCA_site622]”, “TAAAATAATACAAAATGTACAAAATTTACAAAATGT [XGTACX_site3541]” is higher in “gcPBM binding intensity (ln)” value: 9.49 for the first, 9.81 for the second.

Compared with “ATGTAAATTAAACATGGTACACATTATACAAAATTA [XGTACX_site5675]”, “AATATAGAACAATGTTGTACATATAATAATCTTATA [XGTACX_site4671]” is lower in “gcPBM binding intensity (ln)” value: 9.77 for the first, 9.68 for the second.

First: AACGATATCTGTACTACACACATTATGTCATCCTAT [CACACA_site5374]
Second: ATTAACACTGAAAAATGTACATATATAAATATAAGC [XGTACX_site8222]
The “gcPBM binding intensity (ln)” value of the first is higher: 10.3 for the first, 9.79 for the second.

Going from “AATATTAAAAACAAAACACACAAAAAAAAATAAACT [CACACA_site6470]” to “AGCACACCCACAAAAACACACACAAAGGTGTTCTTA [CACACA_site8355]”, the “gcPBM binding intensity (ln)” value rises from 10.2 to 10.5.

First: TCATTATTATTCCTCACACATATATATATATATATT [CACACA_site4375]
Second: CACTTTTCATATATGACACACAAAAAATTAATAAAA [CACACA_site3639]
The “gcPBM binding intensity (ln)” value of the first is higher: 10 for the first, 9.72 for the second.

First: GCATGTATAATGGTAGTGCATATAATAATATAATAA [GTGCAC_site9548]
Second: TAATAATAAAAATAAACACACATATAGATGTATATA [CACACA_site7360]
The “gcPBM binding intensity (ln)” value of the first is higher: 9.85 for the first, 9.77 for the second.

Compared with “ATTTTGTTCGAAAGGTGTACATATACAAAAATTATG [XGTACX_site957]”, “ATTGCTTTTCTTTTTGCACACTTATGCATATATATA [CACACA_site2584]” is higher in “gcPBM binding intensity (ln)” value: 9.67 for the first, 9.97 for the second.

First: ATATCGTATATGAGTGGTACTAATATGTAAAAAAAA [XGTACX_site7830]
Second: TATTATCTCTTATGAACACACATTTTTATTTTCAAA [CACACA_site3353]
The “gcPBM binding intensity (ln)” value of the first is higher: 9.83 for the first, 9.74 for the second.

First: ATATAAGTATTTTGAATGCACTTTCTTTTTTTTTTT
Second: ACTGAAAAAAGAAATACACACATTCTGGATCATATA [CACACA_site3860]
The “gcPBM binding intensity (ln)” value of the first is lower: 9.56 for the first, 9.86 for the second.

Compared with “TTATAAAATAATTAATGTACGTTTATGTGTATCGAA [XGTACX_site6117]”, “AAAGTTATAATACGTACACACCTTATCTTTTTGGCT [CACACA_site6267]” is higher in “gcPBM binding intensity (ln)” value: 9.56 for the first, 9.81 for the second.

Going from “TTTATGGGTATGTTTACACACATAAAAAAATATATG [CACACA_site5646]” to “ATATATATGAAAATATGTACATATATATATATATAA [XGTACX_site7550]”, the “gcPBM binding intensity (ln)” value rises from 9.74 to 9.8.

Compared with “AGCACAAGCACAAGCACACATTTATATATAAATACA [CACACA_site4642]”, “ACAAAATATACAAAATGTACAAAATTTACAAAATAT [XGTACX_site6466]” is lower in “gcPBM binding intensity (ln)” value: 9.85 for the first, 9.81 for the second.

First: AAAAAAAAAAATAAAGAAATCAAAATTGATGAATAA [GTGCAC_negctrl_site692]
Second: TATATAAAAAATAAATGTACACATGTAATAATAAAA [XGTACX_site2640]
The “gcPBM binding intensity (ln)” value of the first is lower: 9.63 for the first, 9.94 for the second.

First: TGTGTAAACATATTCACACACATAAATTCGCATATA [CACACA_site6961]
Second: TATAAATATACACCCACACACATATATATATATATA [CACACA_site3745]
The “gcPBM binding intensity (ln)” value of the first is lower: 9.91 for the first, 10 for the second.

Compared with “TATATATATTTATGCTGTACCAAATAAGAATAGAAA [XGTACX_site7731]”, “ATATGAACAAAATAAATCTCTTCAAAAATAATGTTC [GTGCAC_negctrl_site2]” is lower in “gcPBM binding intensity (ln)” value: 9.6 for the first, 9.55 for the second.

Going from “TAAATGATTGCATAATGTACATATAATTTTTTTTTT [XGTACX_site1988]” to “TACTTACATATAATAACACACAAGAAAAAAATAAAA [CACACA_site1033]”, the “gcPBM binding intensity (ln)” value rises from 9.55 to 9.83.

Compared with “ATTTTTGTACACTTCTTTTTTTTTTTTCTTTTATGT [CACACA_negctrl_site1323]”, “TACCCATGCATTTTTGCACACACATATATATATAAA [CACACA_site1429]” is lower in “gcPBM binding intensity (ln)” value: 10.3 for the first, 9.94 for the second.

First: AGACAGCGCACAAACACACAAACACCCACCCACATA [CACACA_site451]
Second: ATTTATTATGAACATACACACAAAAAAAAAAAGTAT [CACACA_site2054]
The “gcPBM binding intensity (ln)” value of the first is higher: 11.3 for the first, 10.5 for the second.

Going from “TAACTTTGAAAAGATGGTACACAATAATATATATAT [XGTACX_site8667]” to “ATTGTTATTTATTGTGTGCGCATTAATACATACATA [GTGCAC_site9982]”, the “gcPBM binding intensity (ln)” value rises from 9.85 to 10.2.

With “TAATGTTGAGAATTTTGTACATATAGATCAATTTAT [XGTACX_site5426]” the “gcPBM binding intensity (ln)” value was 9.45.
